Test results reported in PubChem BioAssay (Tox21).
Several values for one entry are separate records, joined by “and”; a condition that tells them apart may be missing. Equal values may be shown once. Inconclusive results, whose numbers are uncertain, are shown with a selection of clear calls. A call without a number means that no potency is given here. For some of these results: A potency beside an inconclusive call is a rough fit, not a confirmed value. The source holds several records for some structures; these can differ, active in one and inactive in another. Activity calls are given as the source filed them. Unless noted, the call rests on the fitted dose curve; in most records, active means well fitted curve in the direction sought with a large enough effect in the repeat runs; inconclusive means weak or mixed curves; inactive means no such curve, though single readings can be large; an effect the other way counts as inactive or inconclusive.

Experiments:
[1] = qHTS assay to identify small molecule agonists of the RXR signaling pathway - cell viability counter screen (AID 1159529); further: nearly all actives have a fitted effect of over 50% in size; further: potency means the concentration at half of the fitted maximal effect
In short: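 CellTiter-Glo luminescence gave viability in the wells also read for beta-lactamase. Cells (RXR-alpha-UAS-bla HEK 293T, 2% charcoal-stripped FBS medium) had 5 hr plating, then 16 hr compound exposure at 37 C; tetraoctyl ammonium bromide served as positive control.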

[2] = qHTS assay to identify small molecule agonists of the retinoic acid receptor (RAR) signaling pathway (AID 1159553); details: C3RL4 RARE luciferase reporter, agonist, 6 h; activation: at 73.3 µM (top of the series) unless noted; further: potency means the concentration at half of the fitted maximal effect
In short: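 C3RL4 RARE-luciferase cells were seeded at 1,000/well and grown overnight at 37 C, then exposed to compounds for 6 hr at 37 C, 5% CO2. Luciferase reagent was added and luminescence was read after 30 min at room temperature.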

[3] = qHTS assay to identify small molecule antagonists of the retinoic acid receptor (RAR) signaling pathway (AID 1159552; further: nearly all actives have a fitted effect of over 50% in size; further: potency means the concentration at half of the fitted maximal effect)
In short: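 Luminescent RARE reporter read-out in C3RL4 cells: 6 hr co-treatment at 37 C of test compounds with retinol at 1 uM final. Cells plated overnight beforehand; luciferase reagent incubated 30 min at room temperature before reading.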

[4] = qHTS assay to identify small molecule antagonists of the retinoid acid receptor (RAR) signaling pathway - cell viability counter screen (AID 1159551); further: nearly all actives have a fitted effect of over 35% in size; further: potency means the concentration at half of the fitted maximal effect
In short: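 C3RL4 RARE-luciferase cells, 1,000/well, incubated overnight, then dosed with compound plus 1 uM retinol (final). After 6 hr at 37 C, viability read by CellTiter-Glo ATP luminescence following 30 min at room temperature.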

[5] = qHTS assay to identify small molecule antagonists of the estrogen related receptor signaling pathway with the pleiotropic PPARgamma coactivator (PGC) cell viability counter screen (AID 1224822)
In short: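 PGC/ERR cells rested 6 h, then compound-treated 17.5 h at 37 C. CellTiter-Fluor added for 30 min at 37 C, viability measured by fluorescence intensity.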

[6] = qHTS assay to identify small molecule antagonists of the estrogen related receptor (ERR) signaling pathway (AID 1224819; further: nearly all actives have a fitted effect of over 50% in size; further: potency means the concentration at half of the fitted maximal effect)
In short: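 ERR reporter cell line (NTP) plated at 2,000 cells/well, settled 6 h at 37C/5% CO2, then exposed to LOPAC compounds for 18 h at 37C. One-Glo luciferase luminescence read after 30 min at room temperature.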

[7] = qHTS assay to identify small molecule antagonists of the estrogen related receptor (ERR) signaling pathway - cell viability counter screen (AID 1224818); further: potency means the concentration at half of the fitted maximal effect
In short: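 ERR cells, 2,000 per well, compound added after 6 h and incubated 17.5 h at 37 C. Viability read by CellTiter-Fluor fluorescence after a further 30 min at 37 C.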

[8] = system: estrogen-related receptor alpha (ERRalpha) with PGC-1alpha coactivator, human; assay: qHTS assay to identify small molecule antagonists of the estrogen related receptor signaling pathway with the pleiotropic PPARgamma coactivator (PGC) (AID 1224821; calls by dose curve; further: nearly all actives have a fitted effect of over 50% in size; further: potency means the concentration at half of the fitted maximal effect)
In short: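 Luminescent read-out (One-Glo, 30 min at room temperature) following 18 h treatment of PGC/ERR cells at 37 C with compounds delivered in DMSO. Cells had settled 6 h at 37 C/5% CO2 before dosing.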
Tags describe the fitted curve by direction and shape.

For `Cc1cc2nc(N)sc2cc1C`, which Potency [1] is on record?
Its Potency is inconclusive: 27.8 µM [cytotoxic, partial curve, poor fit].

What about the Potency [2] of the same compound?
The Potency was active: 1.38 µM.

For `CC(=O)c1ccc2c(c1)N(CCCN(C)C)c1ccccc1S2`, which Potency [1] is on record?
The Potency was inconclusive: 8.49 µM [cytotoxic, partial curve, poor fit].

What about the Potency [3] of the same compound?
Its Potency is inconclusive: 37.6 µM [inhibitor, partial curve, poor fit].

For `CC(=O)OCC(=O)[C@@]12OC(C)(C)O[C@@H]1C[C@H]1[C@@H]3C[C@H](F)C4=CC(=O)C=C[C@]4(C)[C@@]3(F)[C@@H](O)C[C@@]12C`, which Potency [1] is on record?
Its Potency is “inactive”.

What does the source list for `C#C[C@]1(O)CC[C@H]2[C@@H]3CCC4=CC(=O)CC[C@@H]4[C@H]3CC[C@@]21C`?
Potency [1]: inconclusive: 34.7 µM [cytotoxic]; Potency [4]: inconclusive: 38.6 µM [rising, partial curve, poor fit]; Potency [3]: active: 27.3 µM and active: 11.9 µM

What does the source list for `C=CC(C)CCC=C(C)C` (stereo not drawn)?
Potency [1]: inactive; Potency [3]: inconclusive: 18.8 µM [inhibitor, partial curve, poor fit]

Which Potency [1] does the source give for `NS(=O)(=O)c1cc2c(cc1Cl)NCNS2(=O)=O` here?
The Potency was inconclusive: 54.1 µM [cytotoxic, single point].

What about the Potency [5] of the same compound?
The Potency was “inactive”.

For `CCN(CC)c1ccc(C=O)c(O)c1`, which Potency [1] is on record?
Its Potency is inconclusive: 27.5 µM [cytotoxic, partial curve, poor fit].

What does the source list for `NC1CCN(c2cccc(Cl)n2)CC1`?
Potency [1]: inconclusive: 9.52 µM [cytotoxic, partial curve, poor fit]; Potency [2]: inactive

With `CC1=CC(=C(c2ccc(N)cc2)c2ccc(N)cc2)C=CC1=N` as the compound, how does the Potency [4] read?
Its Potency is inconclusive: 3.47 µM [cytotoxic, partial curve, poor fit].

Which Potency [4] does the source give for `COc1ccc(NS(=O)(=O)c2ccc(N)cc2)nn1` here?
Its Potency is “inactive”.

For `Cn1ccc2cc3c(cc21)CCN3C(=O)Nc1cccnc1`, which Potency [1] is on record?
The Potency was inconclusive: 1.47 µM [cytotoxic, full curve, poor fit].

What about the Potency [2] of the same compound?
Its Potency is active: 2.31 µM.

Which Potency [1] does the source give for `CCOC(=O)C(=O)CCc1ccccc1` here?
The Potency was “inactive”.

And the Potency [2]?
Its Potency is “inactive”.

For `C#CCOC(=O)[C@@H](C)Oc1ccc(Oc2ncc(Cl)cc2F)cc1`, which Potency [4] is on record?
Its Potency is inconclusive: 0.0015 µM [rising, full curve, poor fit].

With `COC(=O)/C=C(\C)CCC=C(C)C` as the compound, how does the Potency [4] read?
Its Potency is “inactive”.

With `O=C(Cl)c1ccc(C(=O)Cl)cc1` as the compound, how does the Potency [1] read?
Its Potency is “inactive”.

And the Potency [2]?
Its Potency is “inactive”.

With `O=C(C1CCCCC1)N1CC(=O)N2CCc3ccccc3C2C1` (stereo not drawn) as the compound, how does the Potency [1] read?
The Potency was inconclusive: 54.8 µM [cytotoxic, single point].

And the Potency [3]?
The Potency was “inactive”.

What about the Potency [2] of the same compound?
Its Potency is “inactive”.

What about the Potency [5] of the same compound?
Its Potency is “inactive”.

Which results are given for `COc1ccc(CN(CCN(C)C)c2ccccn2)cc1`?
Potency [1]: inconclusive: 54.4 µM [cytotoxic, single point]; Potency [2]: inactive

Which results are given for `Cc1cccc(C)c1[N+](=O)[O-]`?
Potency [1]: inactive and inconclusive: 24.5 µM [cytotoxic, full curve]; Potency [3]: inactive; Potency [2]: inconclusive: 43.3 µM [inhibitor, partial curve]

With `C=C(C)C1CCC(C)CC1O` (stereo not drawn) as the compound, how does the Potency [1] read?
Its Potency is inconclusive: 0.0035 µM [rising, full curve, poor fit].

And the Potency [4]?
The Potency was “inactive”.

For `Cn1ccnc1`, which Potency [1] is on record?
The Potency was “inactive”.

And the Potency [4]?
Its Potency is “inactive”.

What about the Potency [3] of the same compound?
The Potency was inconclusive: 61.1 µM [inhibitor, partial curve, poor fit].

What about the Potency [5] of the same compound?
The Potency was “inactive”.

Which Potency [1] does the source give for `c1ccc(CCNc2nc(-c3ccccc3)cs2)cc1` here?
Its Potency is “inactive”.

And the Potency [2]?
Its Potency is active: 2.11 µM.

With `O=C(CS)OCCOC(=O)CS` as the compound, how does the Potency [1] read?
Its Potency is inconclusive: 27.5 µM [cytotoxic, partial curve, poor fit].

Which Potency [4] does the source give for `CN(C)CCOCCN(C)C` here?
The Potency was “inactive”.

With `CC(C)CC(C)(N)C#N` (stereo not drawn) as the compound, how does the Potency [4] read?
The Potency was “inactive”.

For `CN1CCC[C@@H]1Cc1c[nH]c2ccc(CCS(=O)(=O)c3ccccc3)cc12`, which Potency [1] is on record?
The Potency was inconclusive: 12 µM [cytotoxic, partial curve, poor fit].

And the Potency [4]?
Its Potency is “inactive”.

And the Potency [6]?
The Potency was “inactive”.

What does the source list for `CC(=O)c1nccs1`?
Potency [1]: inactive; Potency [3]: inactive; Potency [2]: inactive

What does the source list for `CC(C)C[C@H]1C(=O)N2CCC[C@H]2[C@]2(O)O[C@](NC(=O)[C@@H]3C=C4c5cccc6[nH]c(Br)c(c56)C[C@H]4N(C)C3)(C(C)C)C(=O)N12`?
Potency [7]: inconclusive: 28.2 µM [cytotoxic]; Potency [8]: active: 16.2 µM

With `CN(C(=O)CCCOc1ccc2[nH]c(=O)ccc2c1)C1CCCCC1` as the compound, how does the Potency [6] read?
The Potency was inconclusive: 25.6 µM [inhibitor].

What about the Potency [8] of the same compound?
The Potency was “inactive”.

For `CCCSc1ccc2nc(NC(=O)OC)[nH]c2c1`, which Potency [2] is on record?
Its Potency is active: 6.11 µM and active: 21.1 µM.

With `C[C@@H](N)C(=O)O` as the compound, how does the Potency [2] read?
The Potency was inconclusive: 33.5 µM [inhibitor, single point].

For `O=C(Nc1ccc(Cl)c(Cl)c1)C1CC1`, which Potency [2] is on record?
The Potency was “inactive”.

With `CC(=O)C(=O)O` as the compound, how does the Potency [2] read?
Its Potency is “inactive”.

Which Potency [2] does the source give for `C=CCOc1ccccc1OCC(O)CNC(C)C` (stereo not drawn) here?
The Potency was “inactive”.

With `C1=C\CC/C=C\CC/1` as the compound, how does the Potency [2] read?
The Potency was “inactive”.

With `O=S(=O)(O)CC(O)CCl` (stereo not drawn) as the compound, how does the Potency [2] read?
The Potency was “inactive”.

For `CCCCOCCOCCOCCCC`, which Potency [2] is on record?
Its Potency is “inactive”.

Which Potency [2] does the source give for `COC(=O)c1ccc2cc(C(=O)OC)ccc2c1` here?
Its Potency is inconclusive: 2.5 µM [activator, partial curve].

With `CNC(=O)c1c(I)c(NC(C)=O)c(I)c(C(=O)O)c1I` as the compound, how does the Potency [2] read?
Its Potency is “inactive”.

Which activation [2] does the source give for `COC(=O)c1cc(Cl)ccc1NS(=O)(=O)C(F)(F)F` here?
Its activation is inconclusive: 3.32% [phenotype inactive].

For `CCCCOC(=O)COc1ccc(Cl)cc1Cl`, which Potency [2] is on record?
Its Potency is inconclusive: 19.5 µM [activator, partial curve, poor fit].

For `C=C(C)C(=O)OCC(C)C`, which Potency [2] is on record?
The Potency was “inactive”.

For `Nc1ccn([C@@H]2O[C@H](CO)[C@@H](O)[C@@H]2O)c(=O)n1`, which Potency [3] is on record?
The Potency was inconclusive: 7.7 µM [inhibitor, partial curve, poor fit].

And the Potency [5]?
Its Potency is “inactive”.

For `CC(=O)Nc1ccc(OC(=O)c2ccccc2OC(C)=O)cc1`, which Potency [2] is on record?
Its Potency is active: 23.7 µM.

Which activation [2] does the source give for `CCN(CC)CC1CCCCN1CC(=O)N1c2ccccc2C(=O)Nc2cccnc21` (stereo not drawn) here?
Its activation is inconclusive: -8.52% [phenotype inactive].

For `C[C@@H](c1ncncc1F)C(O)(Cn1cncn1)c1ccc(F)cc1F` (stereo partly drawn), which Potency [2] is on record?
Its Potency is “inactive”.

For `CC[N+](C)(C)c1cccc(O)c1`, which Potency [2] is on record?
The Potency was “inactive”.

For `CN(C)CCCCl`, which Potency [2] is on record?
The Potency was “inactive”.

With `C/C(=C(\CCOP(=O)(O)O)SC(=O)c1ccccc1)N(C=O)Cc1cnc(C)nc1N` as the compound, how does the activation [2] read?
The activation was inactive: 0.351% [at 8.36 µM].

For `CCCCNC(=S)NCCCC`, which Potency [2] is on record?
The Potency was inconclusive: 21.7 µM [activator, partial curve].

For `CCN(CC)CCc1nc(-c2ccccc2)no1`, which Potency [2] is on record?
The Potency was inconclusive: 21.1 µM [activator, partial curve, poor fit].

With `CC(Oc1c(Cl)cccc1Cl)C1=NCCN1` (stereo not drawn) as the compound, how does the Potency [2] read?
The Potency was inconclusive: 11.9 µM [activator, single point].

Which Potency [2] does the source give for `CN(C)CCC(c1ccccc1)c1ccccn1` (stereo not drawn) here?
The Potency was “inactive”.

For `CC(C)NCC(O)c1cc(O)cc(O)c1` (stereo not drawn), which Potency [2] is on record?
Its Potency is “inactive”.

With `CC(=O)/C=C/C1C(C)=CCC(C)C1(C)C` (stereo not drawn) as the compound, how does the activation [2] read?
The activation was inconclusive: 0.0565% [phenotype inactive].

For `CC1CCC(CO)CC1` (stereo not drawn), which Potency [2] is on record?
The Potency was inconclusive: 79.7 µM [activator, partial curve, poor fit].

Which Potency [2] does the source give for `O=C(c1ccccc1)c1ccc2n1CCC2C(=O)O` (stereo not drawn) here?
Its Potency is active: 13.3 µM.

With `COC(=O)CCSCCC(=O)OC` as the compound, how does the Potency [2] read?
Its Potency is “inactive”.

Which Potency [2] does the source give for `OCc1c2ccccc2cc2ccccc12` here?
The Potency was inconclusive: 61.3 µM [activator, partial curve, poor fit].

With `CN(C)Cc1cc(CN(C)C)c(O)c(CN(C)C)c1` as the compound, how does the Potency [2] read?
The Potency was “inactive”.

With `CCC(Cl)CCC(Cl)C(Cl)CC(Cl)C(Cl)C(Cl)CCl` (stereo not drawn) as the compound, how does the Potency [2] read?
The Potency was inconclusive: 76.3 µM [inhibitor, single point].
